From US20260250378A1 (AGENCY FOR SCIENCE TECHNOLOGY AND RESEARCH, published 2026)

Columns and labels:
MsCANX_His = biological target: T1, MsCANX_His (mouse, UniProt P35564); assay: BLI, IgG1 on AHC biosensor, MsCANX_His 200-0.39 nM
T1 construct: recombinant, C-terminal polyhistidine tag; also called recombinant mouse CANX protein with a polyhistidine tag at the C-terminus
T1 sequence (antigen, looked up): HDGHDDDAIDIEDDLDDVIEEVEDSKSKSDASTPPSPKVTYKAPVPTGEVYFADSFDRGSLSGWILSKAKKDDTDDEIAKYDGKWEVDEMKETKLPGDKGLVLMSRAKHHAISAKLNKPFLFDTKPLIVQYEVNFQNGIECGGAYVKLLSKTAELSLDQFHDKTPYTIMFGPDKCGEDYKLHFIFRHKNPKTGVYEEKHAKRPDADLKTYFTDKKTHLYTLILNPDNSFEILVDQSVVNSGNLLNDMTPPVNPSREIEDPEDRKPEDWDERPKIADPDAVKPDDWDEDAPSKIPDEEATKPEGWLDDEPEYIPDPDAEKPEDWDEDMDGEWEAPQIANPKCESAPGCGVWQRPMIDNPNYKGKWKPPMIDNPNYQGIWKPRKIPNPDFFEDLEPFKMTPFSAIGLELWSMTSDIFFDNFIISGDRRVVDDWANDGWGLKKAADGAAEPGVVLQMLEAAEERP
Method: The binding affinity of the 15 antibody clones to recombinant mouse CANX protein with a polyhistidine tag at the C-terminus (MsCANX_His) was measured by Bio-Layer Interferometry. The 15 antibody clones were loaded and captured by the anti-human IgG Fc capture (AHC) biosensors (FIG. 6). The biosensors were dipped into a range of MsCANX_His protein concentrations (from 200 nM to 0.39 nM, in 2-fold dilutions), the kinetics of the association and dissociation were then recorded.

[1] = biological target: T2, recombinant human CNX protein with a polyhistidine tag at the C-terminus (HuCANX_His) (human, UniProt P27824 21-481, limits assumed); assay: ELISA, IgG1 coated 10 nM, His-tagged antigen titrated (EC50 is of the antigen), anti-His-HRP
T2 construct: also called HuCANX with a His tag
T2 sequence (looked up): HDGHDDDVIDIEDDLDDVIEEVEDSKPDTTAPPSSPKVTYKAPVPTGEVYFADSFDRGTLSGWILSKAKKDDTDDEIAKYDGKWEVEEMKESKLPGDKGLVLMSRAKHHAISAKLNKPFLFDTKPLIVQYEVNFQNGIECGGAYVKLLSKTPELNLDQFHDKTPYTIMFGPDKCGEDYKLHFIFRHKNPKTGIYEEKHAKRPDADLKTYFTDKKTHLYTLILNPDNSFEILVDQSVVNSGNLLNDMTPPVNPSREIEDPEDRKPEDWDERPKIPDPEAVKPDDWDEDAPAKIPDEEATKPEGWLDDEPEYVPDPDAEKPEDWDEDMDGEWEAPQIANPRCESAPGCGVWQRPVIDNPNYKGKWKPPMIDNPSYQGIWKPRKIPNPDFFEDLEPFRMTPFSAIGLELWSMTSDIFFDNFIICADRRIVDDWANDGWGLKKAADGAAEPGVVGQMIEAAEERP
Method: The 15 antibody clones were tested using ELISA against biotinylated recombinant HuCANX_hFc protein to assess binding avidity for the target, with an irrelevant IgG1 used as a negative control antibody. In brief, the 15 antibody clones were coated at 2 μg/ml onto the 96-well ELISA plates overnight at 4° C. After blocking with casein for 2 hours, the biotinylated antigen was added at different concentrations (3 times serial dilutions) and incubated for 1 hour. The wells were then washed with PBST and detected by HRP conjugated streptavidin. […] antibody clones were also tested in ELISA against recombinant HuCANX_His protein to assess binding affinity for the target, with an irrelevant IgG1 used as a negative control antibody. In brief, the 15 antibody clones were coated at 10 nM onto the 96-well ELISA plates overnight at 4° C. After blocking with casein for 2 hours, the antigen was added at different concentrations (3 times serial dilutions) and incubated for 1 hour. The wells were then washed with PBST and detected by HRP conjugated anti-His tag antibody.

[2] = biological target: T2, recombinant human CNX protein with a …; assay: BLI, IgG1 on AHC biosensor, HuCANX_His 200-3.13 nM
Method: The 5 antibody clones were loaded and captured by the anti-human IgG Fc capture (AHC) biosensors. The biosensors were dipped into a range of HuCANX_His protein concentrations (from 200 nM to 3.13 nM, in 2-fold dilutions), the kinetics of the association and dissociation were then recorded.

- Kd (MsCANX_His): 1.8 nM
- koff (MsCANX_His): 0.000102 s⁻¹
- kon (MsCANX_His): 56900 M⁻¹ s⁻¹
- EC50 [1]: 41.4 nM
- Kd [2]: 2.09 nM
- koff [2]: 7.03e-05 s⁻¹
- kon [2]: 33700 M⁻¹ s⁻¹
B1: 1E1 IgG1 (antibody)
heavy: QVQLQESGGGVVRPGGSLRLSCAASGFTFDDYGMSWVRQAPGKGLEWVSGINWNGGSTGYADSVKGRFTISRDNAKNSLYLQMNSLRAEDTAVYYCARGIAVDYWGQGTLVTVSS[left out - human IgG1 constant region]
light: not shown
notes: also called IgG1 1E1; Igg1 1E1
